# About 5,800 (2.1%) of roughly 270,000 compounds were called active. Inconclusive means that the source gave no clear call. Such entries were picked first, then a sample of the others. The call rests on the fitted dose curve; in most records, active means well fitted inhibition curve with a large enough effect; inconclusive means small, poorly fitted or top-dose-only effect; inactive means flat fitted curve, though single readings scatter. Potencies beside an inconclusive call are fits to weak or partial responses and may not hold up.
# Biological target: Microtubule-associated protein tau (Homo sapiens) (UniProt P10636)
# UniProt P10636, sequence (P10636 whole entry, looked up): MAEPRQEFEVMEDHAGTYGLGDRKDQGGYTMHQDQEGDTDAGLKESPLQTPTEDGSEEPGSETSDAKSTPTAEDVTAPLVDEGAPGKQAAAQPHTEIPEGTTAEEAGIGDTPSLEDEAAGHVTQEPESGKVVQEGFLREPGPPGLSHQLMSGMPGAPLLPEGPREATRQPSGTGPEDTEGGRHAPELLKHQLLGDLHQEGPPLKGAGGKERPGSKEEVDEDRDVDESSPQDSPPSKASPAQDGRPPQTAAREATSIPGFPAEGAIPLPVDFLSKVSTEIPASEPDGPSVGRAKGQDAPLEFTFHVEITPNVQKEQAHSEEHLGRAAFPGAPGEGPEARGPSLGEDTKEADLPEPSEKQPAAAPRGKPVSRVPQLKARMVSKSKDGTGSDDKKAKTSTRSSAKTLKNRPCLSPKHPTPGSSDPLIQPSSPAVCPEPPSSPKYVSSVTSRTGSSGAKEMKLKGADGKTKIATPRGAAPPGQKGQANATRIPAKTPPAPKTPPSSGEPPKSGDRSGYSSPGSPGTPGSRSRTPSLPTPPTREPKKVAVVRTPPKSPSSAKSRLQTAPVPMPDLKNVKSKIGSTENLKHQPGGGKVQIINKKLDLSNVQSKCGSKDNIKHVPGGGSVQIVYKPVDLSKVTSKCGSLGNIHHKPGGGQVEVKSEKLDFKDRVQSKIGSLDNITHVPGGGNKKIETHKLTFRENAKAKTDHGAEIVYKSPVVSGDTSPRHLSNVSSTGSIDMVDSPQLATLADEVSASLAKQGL
# Assay: qHTS for Inhibitors of Tau Fibril Formation, Thioflavin T Binding; further: nearly all actives have a fitted effect of over 55% in size
# Details: recombinant tau K18 P301L, heparin-induced fibrillization, ThT fluorescence; series mostly up to 57.4 µM
# In short: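 ThT emission at 510 nm, taken 1 hr after adding 30 uM dye, quantifies aggregates formed when 20 uM heparin acts on human tau K18 P301L for 6 hr at 37 C.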
# Potency means the concentration at half of the fitted maximal effect; tags describe the fitted curve by direction and shape.
row,SMILES,Potency
1,Cc1cccc(OCC(=O)NCC2(N3CCN(C)CC3)CCCCC2)c1C,inactive
2,COc1ccc(CCNC(=O)c2ccc(CSc3ccccc3)o2)cc1,"inconclusive: 17.8 µM [inhibitor, single point]"
3,CCCCN(C)Cc1cc(=O)oc2cc3c(cc12)CCCC3,"inconclusive: 25.1 µM [inhibitor, single point]"
4,CN(C)S(=O)(=O)Nc1ccc(Oc2ccccc2)cc1,inactive
5,CCOC(=O)c1cccc(NC(=O)CCS(=O)(=O)c2cccc3nsnc23)c1,"inconclusive: 10 µM [inhibitor, partial curve]"
6,CCCCCCCCCCCCCCCC(=O)OC(CO)CO,"inconclusive: 25.1 µM [inhibitor, partial curve, poor fit]"
7,O=C1C(Nc2ccccc2)=C(NS(=O)(=O)c2ccccc2)C(=O)c2ccccc21,"inconclusive: 7.08 µM [inhibitor, full curve]"
8,COc1ccc(C(=O)N2CC(=O)Nc3ccc(C)cc3C2c2ccccc2)c(OC)c1 (centres undefined),"inconclusive: 1 µM [inhibitor, full curve, poor fit]"
9,COc1ccc(-c2noc(-c3ccc(C)cc3)n2)cc1,"inconclusive: 11.2 µM [inhibitor, partial curve, poor fit]"
10,O=C(CSc1nc2ccc([N+](=O)[O-])cc2[nH]1)c1ccc2ccccc2c1,"inconclusive: 25.1 µM [inhibitor, partial curve]"
11,O=C(Cn1cnc2ccccc21)N/N=C/c1ccc([N+](=O)[O-])cc1,"inconclusive: 25.1 µM [inhibitor, partial curve]"
12,CCCN(CC1CC1)C(=O)COC(=O)c1[nH]c(C)c(C(=O)OCC)c1C,"inconclusive: 28.2 µM [inhibitor, partial curve]"
13,N#CCC(N)=C(C#N)C#N,"inconclusive: 17.8 µM [inhibitor, partial curve]"
14,Cn1nc(C(F)(F)F)c2cc(NC(=O)OCc3ccc(C(C)(C)C)cc3)sc21,"inconclusive: 31.6 µM [inhibitor, partial curve]"
15,COc1ccc(/C=C\c2onc(C)c2S(=O)(=O)N2CCC(C(=O)Nc3ccc(Cl)cc3)CC2)cc1,inactive
16,COc1ccc(C(=O)C(Cc2cc(C(C)=O)ccc2OC)N2CCCC2)cc1 (centres undefined),"inconclusive: 20 µM [inhibitor, single point]"
17,COc1ccc2cc(CN(CCc3ccccc3)Cc3nnnn3Cc3ccco3)c(=O)[nH]c2c1,"inconclusive: 31.6 µM [inhibitor, single point]"
18,Cc1nc(NC(=O)c2oc3ccccc3c2C)sc1C(=O)N(C)C,"inconclusive: 31.6 µM [inhibitor, single point]"
19,Oc1c(Cl)cc(Cl)cc1/C=C/c1ccc2cccc(O)c2n1,"inconclusive: 3.16 µM [inhibitor, full curve]"
20,CCCOC(=O)Oc1ccc2c(=O)c(Oc3cc(C)cc(C)c3)coc2c1,"inconclusive: 20 µM [inhibitor, single point]"
21,O=C1C2CC=CCC2C(=O)N1c1ccc(NCCc2ccc(O)cc2)c([N+](=O)[O-])c1 (centres undefined),"inconclusive: 2.51 µM [inhibitor, full curve]"
22,O=C(O)COc1ccc(Br)cc1/C=N/O,inactive

row,SMILES,Potency
1,COc1ccccc1N1CCN(S(=O)(=O)c2ccc3[nH]c4c(c3c2)CCCC4)CC1,inactive
2,COc1ccc(-c2ccnc3[nH]n(-c4ccccc4)c(=O)c23)cc1,"inconclusive: 1.12 µM [inhibitor, full curve]"
3,COc1cc(NC(=S)N2CCN(C)CC2)c(OC)cc1Cl,inactive
4,Cc1ccc2c(CN3CCCc4ccccc43)cc(=O)oc2c1C,"inconclusive: 31.6 µM [inhibitor, single point]"
5,CN(C)C=Nc1ncc2c([nH]c3ccccc32)c1C#N,inactive
6,COc1cccc(/C=N/Nc2nn3cnnc3c3ccccc23)c1O,"inconclusive: 2.82 µM [inhibitor, full curve]"
7,Cc1cccc2[nH]c(-c3ccc(NC(=O)c4ccco4)cc3)nc12,"inconclusive: 35.5 µM [activator, single point]"
8,O=C(COC(=O)CC1CC2CCC1C2)Nc1cccc(S(=O)(=O)NC2=NCCCCC2)c1 (centres undefined),inactive
9,COc1ccc(-c2nnc(SCc3ncc(-c4ccccc4)o3)o2)cc1,"inconclusive: 4.47 µM [inhibitor, full curve]"
10,CCCN(Cc1cccs1)C(=O)Nc1ccc(Br)c(C)c1,inactive
11,CC(C)Cn1c(-c2ccc(S(=O)(=O)N3CCCC3)cc2)csc1=Nc1ccccc1,inactive
12,NC(=O)CC[C@@H]1NC(=O)[C@H](CO)NC(=O)c2cc([N+](=O)[O-])cc(I)c2NCCCC[C@@H](C(N)=O)NC(=O)[C@H](Cc2ccc(O)cc2)NC1=O,"inconclusive: 7.94 µM [inhibitor, partial curve]"
13,O=C(O)Cc1cn(Cc2ccc(F)cc2)c2ccccc12,inactive
14,CCOc1ccc(/C=C2\SC(N3CCc4ccccc4C3)=NC2=O)cc1,"inconclusive: 14.1 µM [inhibitor, partial curve]"
15,CC(=O)C1=C(C)OC(N)=C(C#N)C1c1cccc2ccccc12 (centres undefined),"inconclusive: 39.8 µM [inhibitor, single point]"
16,CN(C)c1ccc(C(CN)c2c[nH]c3ccccc23)cc1 (centres undefined),"inconclusive: 15.8 µM [inhibitor, partial curve]"
17,COc1ccc(CCNC(=O)CSc2nc3ccccc3nc2Cc2ccc(Cl)cc2)cc1OC,inactive
18,COC(=O)c1c(NC(=O)C2SC(=NC3CCCCC3)C(C(N)=O)=C2N)sc2c1CCCC2 (centres undefined),"inconclusive: 10 µM [inhibitor, partial curve, poor fit]"
19,Cc1ccc(Nc2cc(C)nc(-c3ccccc3O)n2)cc1,"inconclusive: 15.8 µM [inhibitor, partial curve]"
20,Cc1ccc2nc(/C(C#N)=C\c3cc(O)ccc3[N+](=O)[O-])[nH]c2c1,active: 15.8 µM
21,Nc1[nH]c(N=NC(=O)c2ccccc2O)c2ccccc12,"inconclusive: 28.2 µM [inhibitor, single point]"
22,N/C(=N\N=C\c1ccc(O)c(O)c1)c1nonc1N,"inconclusive: 5.62 µM [inhibitor, partial curve]"

# From PubChem BioAssay AID1460 (National Center for Advancing Translational Sciences (NCATS), 2008)
